{
  "source": "the BET-seq Pho4 binding data (Le et al. 2018)",
  "note": "This is one part of the list. These are noisy estimates, calculated here from bound and input reads.",
  "data": [
    {"biological_target": "T1, Pho4 (S. cerevisiae) (UniProt P07270)", "T1 sequence": "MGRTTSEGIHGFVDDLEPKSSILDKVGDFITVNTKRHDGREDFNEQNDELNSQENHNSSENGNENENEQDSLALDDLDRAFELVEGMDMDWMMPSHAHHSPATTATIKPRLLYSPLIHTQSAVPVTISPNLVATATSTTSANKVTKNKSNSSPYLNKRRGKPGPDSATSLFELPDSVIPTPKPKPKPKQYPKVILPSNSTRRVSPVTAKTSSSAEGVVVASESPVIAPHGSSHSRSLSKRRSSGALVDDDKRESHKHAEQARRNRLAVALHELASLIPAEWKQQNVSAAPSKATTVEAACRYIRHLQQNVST", "experiment": "relative binding free energy (BET-seq); higher = weaker binding", "details": "reference: library average", "units": {"relative binding free energy": "kcal/mol"}, "values": [
      {"sequence": "GAGGTCACGTGTGGGA", "relative binding free energy": 0.26},
      {"sequence": "AAGTCCACGTGTTGGG", "relative binding free energy": 0},
      {"sequence": "AAGTGCACGTGGAAGA", "relative binding free energy": 0.06},
      {"sequence": "CATTTCACGTGAGTGT", "relative binding free energy": 0.29},
      {"sequence": "AAGTGCACGTGGTTTT", "relative binding free energy": -0.18},
      {"sequence": "CTAAGCACGTGGTTTA", "relative binding free energy": -0.12},
      {"sequence": "TAATGCACGTGCATTA", "relative binding free energy": 0.06},
      {"sequence": "TGATTCACGTGGGAGA", "relative binding free energy": 0.27},
      {"sequence": "AGGCGCACGTGGGGAA", "relative binding free energy": -0.13},
      {"sequence": "CGCATCACGTGAGGGT", "relative binding free energy": 0.29},
      {"sequence": "GATATCACGTGCGGGT", "relative binding free energy": 0.06},
      {"sequence": "TGATTCACGTGGACTG", "relative binding free energy": 0.33},
      {"sequence": "TGGTTCACGTGTAATG", "relative binding free energy": 0.26},
      {"sequence": "GTTTGCACGTGAGAAA", "relative binding free energy": 0.39},
      {"sequence": "AAGTTCACGTGTTTGG", "relative binding free energy": 0.2},
      {"sequence": "GGTATCACGTGTAGGC", "relative binding free energy": 0.17},
      {"sequence": "CGTATCACGTGGGTGG", "relative binding free energy": -0.02},
      {"sequence": "TTTTTCACGTGGGTTA", "relative binding free energy": 0.31},
      {"sequence": "AGTGGCACGTGGGAAG", "relative binding free energy": -0.11},
      {"sequence": "CGAGACACGTGTTTTT", "relative binding free energy": 0.15},
      {"sequence": "GTTCACACGTGTGGGA", "relative binding free energy": 0.16},
      {"sequence": "TTGATCACGTGGCGGT", "relative binding free energy": 0.01},
      {"sequence": "TGTTTCACGTGTGCCT", "relative binding free energy": 0.37},
      {"sequence": "AATTTCACGTGATCGG", "relative binding free energy": 0.22},
      {"sequence": "AGAATCACGTGAGTGG", "relative binding free energy": 0.28},
      {"sequence": "GGTGACACGTGGAGTT", "relative binding free energy": 0.13},
      {"sequence": "TCTTTCACGTGTGTGT", "relative binding free energy": 0.31},
      {"sequence": "GTCTGCACGTGGGTAT", "relative binding free energy": -0.13},
      {"sequence": "GCGGTCACGTGTAGTG", "relative binding free energy": 0.09},
      {"sequence": "TTGTCCACGTGAATGG", "relative binding free energy": 0.22},
      {"sequence": "AGGGGCACGTGAGGTC", "relative binding free energy": 0.1},
      {"sequence": "GTCTTCACGTGGAATT", "relative binding free energy": 0.37},
      {"sequence": "TATTTCACGTGTTGTT", "relative binding free energy": 0.26},
      {"sequence": "TTATTCACGTGTCTGT", "relative binding free energy": 0.3},
      {"sequence": "GCCTGCACGTGGGCGG", "relative binding free energy": -0.22},
      {"sequence": "TGCAACACGTGGGGGT", "relative binding free energy": -0.11},
      {"sequence": "GTTAACACGTGTAATA", "relative binding free energy": 0.14},
      {"sequence": "AGTGTCACGTGCCAGT", "relative binding free energy": 0.08},
      {"sequence": "AGTGACACGTGGATGT", "relative binding free energy": 0.05},
      {"sequence": "GGTCACACGTGATCGT", "relative binding free energy": 0.36},
      {"sequence": "GGCTCCACGTGTGTGG", "relative binding free energy": -0.08},
      {"sequence": "GGTGGCACGTGGTCAT", "relative binding free energy": -0.17},
      {"sequence": "GGTTCCACGTGGTGCG", "relative binding free energy": -0.08},
      {"sequence": "TTAGTCACGTGTACTG", "relative binding free energy": 0.19},
      {"sequence": "TGTATCACGTGCGTCG", "relative binding free energy": -0.08},
      {"sequence": "TGGATCACGTGGAAGT", "relative binding free energy": 0.25},
      {"sequence": "CTTAGCACGTGATGTA", "relative binding free energy": 0.02},
      {"sequence": "ACTGTCACGTGTGGTC", "relative binding free energy": 0.11},
      {"sequence": "GGTTACACGTGTTTCG", "relative binding free energy": 0.11},
      {"sequence": "TGCTGCACGTGTTAGG", "relative binding free energy": 0.03},
      {"sequence": "GGTGGCACGTGGGAAT", "relative binding free energy": 0.05},
      {"sequence": "AAAGTCACGTGGTCTG", "relative binding free energy": -0.05},
      {"sequence": "GGGTACACGTGCTGGC", "relative binding free energy": 0.07},
      {"sequence": "GGGCGCACGTGTCTGT", "relative binding free energy": -0.11},
      {"sequence": "TTGGTCACGTGGGGGG", "relative binding free energy": 0.02},
      {"sequence": "AAGGACACGTGTGGTG", "relative binding free energy": 0.02},
      {"sequence": "TTTTGCACGTGGAACA", "relative binding free energy": 0},
      {"sequence": "TGGGTCACGTGGGCCG", "relative binding free energy": -0.09},
      {"sequence": "ATAAACACGTGGTTTA", "relative binding free energy": -0.15},
      {"sequence": "GAAATCACGTGTGTTG", "relative binding free energy": 0.28},
      {"sequence": "TGGTACACGTGGATTG", "relative binding free energy": 0.12},
      {"sequence": "CGGGACACGTGTGGTC", "relative binding free energy": 0.09},
      {"sequence": "GGAAGCACGTGTCGAG", "relative binding free energy": 0.01},
      {"sequence": "ATGTCCACGTGGTGTC", "relative binding free energy": 0.03},
      {"sequence": "TGATTCACGTGGCCGT", "relative binding free energy": 0.34},
      {"sequence": "CTATTCACGTGTCGGT", "relative binding free energy": 0.35},
      {"sequence": "AATGCCACGTGTGGGA", "relative binding free energy": 0.14},
      {"sequence": "GCTGGCACGTGAGGGT", "relative binding free energy": 0.22},
      {"sequence": "TCATTCACGTGATTGA", "relative binding free energy": 0.34},
      {"sequence": "AGTATCACGTGGCGAG", "relative binding free energy": 0.19},
      {"sequence": "AGCGTCACGTGCTAGT", "relative binding free energy": 0.05},
      {"sequence": "ATTTACACGTGTGCAG", "relative binding free energy": 0.14},
      {"sequence": "TGATTCACGTGATGTT", "relative binding free energy": 0.3},
      {"sequence": "GGGATCACGTGGATAT", "relative binding free energy": 0.19},
      {"sequence": "TCATTCACGTGATGTA", "relative binding free energy": 0.25},
      {"sequence": "TTAGACACGTGCTTAT", "relative binding free energy": 0.01},
      {"sequence": "TTGATCACGTGATTGA", "relative binding free energy": 0.33},
      {"sequence": "GACGTCACGTGGTATG", "relative binding free energy": 0.16},
      {"sequence": "GCGGTCACGTGGATAG", "relative binding free energy": 0.11},
      {"sequence": "CTGTCCACGTGAGGTG", "relative binding free energy": 0.25},
      {"sequence": "GTGCCCACGTGGGTGA", "relative binding free energy": -0.19},
      {"sequence": "TGTTCCACGTGGTGTA", "relative binding free energy": -0.02},
      {"sequence": "CTGTGCACGTGGGATA", "relative binding free energy": -0.31},
      {"sequence": "AGGTGCACGTGTTACG", "relative binding free energy": 0.05},
      {"sequence": "GGCTTCACGTGGGCGT", "relative binding free energy": 0.28},
      {"sequence": "TGTAGCACGTGTCGTC", "relative binding free energy": 0.02},
      {"sequence": "TAGGTCACGTGGGTAC", "relative binding free energy": 0.08},
      {"sequence": "TTAGACACGTGAATTT", "relative binding free energy": 0.31},
      {"sequence": "AATGACACGTGGGTAA", "relative binding free energy": -0.16},
      {"sequence": "GCATTCACGTGTGTGT", "relative binding free energy": 0.28},
      {"sequence": "GTGAACACGTGGTTCT", "relative binding free energy": 0.12},
      {"sequence": "AGGTACACGTGGCATT", "relative binding free energy": -0.04},
      {"sequence": "TTACCCACGTGGTTTG", "relative binding free energy": -0.07},
      {"sequence": "CGCTTCACGTGGGGTC", "relative binding free energy": 0.23},
      {"sequence": "TAACACACGTGGAGGT", "relative binding free energy": 0.12},
      {"sequence": "GTAGACACGTGTGGTA", "relative binding free energy": -0.01},
      {"sequence": "GTAGTCACGTGGCGGT", "relative binding free energy": 0.04},
      {"sequence": "TGTTGCACGTGCGGGT", "relative binding free energy": 0.05},
      {"sequence": "TTAGTCACGTGCTTAG", "relative binding free energy": 0.03},
      {"sequence": "CGATTCACGTGGTGTA", "relative binding free energy": 0.13},
      {"sequence": "TCTTACACGTGATGTT", "relative binding free energy": 0.32},
      {"sequence": "AGGATCACGTGAGTGA", "relative binding free energy": 0.24},
      {"sequence": "TAAGACACGTGTAATG", "relative binding free energy": 0.12},
      {"sequence": "GGCTACACGTGGCGGG", "relative binding free energy": 0.12},
      {"sequence": "TTAGGCACGTGGTAGT", "relative binding free energy": -0.11},
      {"sequence": "TTTGTCACGTGATTCA", "relative binding free energy": 0.18},
      {"sequence": "GTGAGCACGTGGCTTA", "relative binding free energy": -0.16},
      {"sequence": "CTTTACACGTGTGGAG", "relative binding free energy": 0.19},
      {"sequence": "TACAGCACGTGGTGAG", "relative binding free energy": -0.12},
      {"sequence": "GTGTTCACGTGGGGAG", "relative binding free energy": 0.19},
      {"sequence": "TAGTTCACGTGTGCTA", "relative binding free energy": 0.31},
      {"sequence": "TTGTCCACGTGTAGAG", "relative binding free energy": -0.01},
      {"sequence": "GGGTACACGTGAGGAT", "relative binding free energy": 0.38},
      {"sequence": "GATGACACGTGGATGG", "relative binding free energy": 0.01},
      {"sequence": "GGTAGCACGTGTAGAG", "relative binding free energy": 0.01}
    ]}
  ]
}
